Several values for one entry are separate records, joined by “and”; a condition that tells them apart may be missing. Equal entries are not always repeated. Inconclusive results and toxic doses are left out.
System: L1210 leukemia ip in BDF1 mice, survival T/C
Experiment: NCI In Vivo Anticancer Drug Screen. Data for tumor model L1210 Leukemia (intraperitoneal) in B6D2F1 (BDF1) mice
Conditions: endpoint: mean survival time, higher = longer survival
Procedure, shortened: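 Ratio derived from survival: compound-dosed mice over vehicle-dosed mice, all bearing a transplantable tumor.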

COc1cc2c(c(OC)c1OC)-c1ccc(OC)c(=O)cc1C(N)CC2 (stereo not drawn)
T/C (dose: 50.0 mg/kg/injection, schedule: Q01DX009 (ip), vehicle: other): 97 % of control
T/C (dose: 75.0 mg/kg/injection, schedule: Q01DX009 (ip), vehicle: other): 102 % of control and 112 % of control
T/C (dose: 150.0 mg/kg/injection, schedule: Q01DX009 (ip), vehicle: other): 93 % of control

COc1c(O)cc2c(c1OC)-c1ccc(OC)c(=O)cc1[C@@H](NC(C)=O)CC2
T/C (dose: 0.62 mg/kg/injection, schedule: Q01DX009 (ip), vehicle: saline with Tween-80): 113 % of control
T/C (dose: 2.5 mg/kg/injection, schedule: Q01DX009 (ip), vehicle: saline with Tween-80): 122 % of control
T/C (dose: 3.75 mg/kg/injection, schedule: Q01DX009 (ip), vehicle: saline with Tween-80): 153 % of control
T/C (dose: 7.5 mg/kg/injection, schedule: Q01DX009 (ip), vehicle: saline with Tween-80): 150 % of control
T/C (dose: 10.0 mg/kg/injection, schedule: Q01DX009 (ip), vehicle: saline with Tween-80): 96 % of control
T/C (dose: 10.0 mg/kg/injection, schedule: Q01DX009 (ip), vehicle: saline): 107 % of control
T/C (dose: 100.0 mg/kg/injection, schedule: Q04DX003 (ip), vehicle: saline): 93 % of control

COc1ccc(NC(=O)/C=C/c2ccccc2)cc1
T/C (dose: 100.0 mg/kg/injection, schedule: Q01DX009 (ip), vehicle: Klucel (hydroxypropylcellulose) (HPC)): 95 % of control
T/C (dose: 200.0 mg/kg/injection, schedule: Q01DX009 (ip), vehicle: Klucel (hydroxypropylcellulose) (HPC)): 107 % of control
T/C (dose: 400.0 mg/kg/injection, schedule: Q01DX009 (ip), vehicle: Klucel (hydroxypropylcellulose) (HPC)): 96 % of control
